Measured values: the BET-seq Pho4 binding data (Le et al. 2018)
The list shows a part of the results. The energies were worked out here from pooled read counts, against the library average; single values are noisy.

Biological target: T1, Pho4 (S. cerevisiae) (UniProt P07270)
T1 sequence: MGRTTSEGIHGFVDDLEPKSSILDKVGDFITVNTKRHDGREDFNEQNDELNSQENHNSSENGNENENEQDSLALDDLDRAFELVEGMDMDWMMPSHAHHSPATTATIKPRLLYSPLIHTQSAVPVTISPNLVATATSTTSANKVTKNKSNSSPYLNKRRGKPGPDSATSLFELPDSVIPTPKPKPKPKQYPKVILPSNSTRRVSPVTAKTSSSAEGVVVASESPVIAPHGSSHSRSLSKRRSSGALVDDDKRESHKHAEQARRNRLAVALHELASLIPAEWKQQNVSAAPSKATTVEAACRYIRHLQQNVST
Experiment: relative binding free energy (BET-seq); higher = weaker binding
Details: reference: library average

Row | Sequence | relative binding free energy [kcal/mol]
1 | AATGGCACGTGGTCTA | -0.19
2 | GTATTCACGTGGGTGA | 0.25
3 | TATGGCACGTGTTGGT | -0.02
4 | TATTTCACGTGGGGCA | 0.18
5 | TTATGCACGTGAATTC | 0.35
6 | AGGGTCACGTGAATTG | 0.32
7 | GAGTGCACGTGGTAGG | 0.02
8 | TAGAACACGTGATTGT | 0.06
9 | TTTTACACGTGTCTGG | 0.2
10 | TGGGCCACGTGATGAT | 0.26
11 | CTAGGCACGTGATGGC | 0.01
12 | TCCAGCACGTGTGGTG | -0.09
13 | GGGATCACGTGTGTAA | 0.22
14 | ATGTGCACGTGGCGGC | -0.12
15 | GGCTGCACGTGTGCTT | 0.12
16 | TTGGGCACGTGTTACG | 0.04
17 | AGTTACACGTGGAAGT | 0.23
18 | AGCAGCACGTGGGGCG | -0.16
19 | TATAACACGTGGGGAA | 0.01
20 | GATAGCACGTGGGGTG | -0.22
21 | TTCTGCACGTGAGAGT | 0.23
22 | AATATCACGTGCGTAG | 0.26
23 | GATAGCACGTGGTTTT | 0.09
24 | TTTAGCACGTGTTTGT | -0.08
25 | GGGAGCACGTGATGAG | 0.14

Row | Sequence | relative binding free energy [kcal/mol]
26 | TTCGGCACGTGTGTGC | 0.04
27 | GAAAACACGTGAGGGT | 0.32
28 | TAAAGCACGTGGGAGA | -0.13
29 | TGAAGCACGTGTTTGG | -0.07
30 | AGATACACGTGGATTT | 0.11
31 | TAATACACGTGGATGT | 0.03
32 | ATGGACACGTGTTGTC | 0.11
33 | CATAGCACGTGGAGGT | -0.1
34 | TGGGACACGTGAAGGC | 0.34
35 | AGTTGCACGTGGAGTT | -0.02
36 | GGATTCACGTGGGCGC | 0.3
37 | TTTAGCACGTGAGATG | 0.25
38 | CGAGGCACGTGGGGTA | -0.17
39 | AAAATCACGTGGGGCT | 0.11
40 | TTGGTCACGTGAGGGG | 0.26
41 | GTGTGCACGTGAATTG | 0.4
42 | GTGTGCACGTGTGACA | 0.02
43 | TAATGCACGTGTTGGA | 0
44 | TATCGCACGTGTGGTC | 0.25
45 | AGGCACACGTGAAGGG | 0.15
46 | GTTATCACGTGGGGGT | 0.02
47 | GTTGTCACGTGTGTAA | 0.15
48 | AGGGTCACGTGCGGGT | 0
49 | TTGGCCACGTGTAGGG | 0.01
50 | TATTGCACGTGTACTT | -0.01

Row | Sequence | relative binding free energy [kcal/mol]
51 | TATGCCACGTGTAGGG | -0.13
52 | GTATGCACGTGGGGCT | -0.15
53 | CTGGTCACGTGGCGCT | 0.06
54 | GGTAACACGTGTTTTA | -0.03
55 | TGTTCCACGTGAGGGA | 0.39
56 | GTTTTCACGTGAAAGA | 0.33
57 | ATGGACACGTGCGCGG | 0.01
58 | GGGCACACGTGGTTGT | -0.02
59 | TAGTTCACGTGGCAGG | 0.23
60 | TAATTCACGTGATGCT | 0.31
61 | TGTGTCACGTGATTCG | 0.25
62 | TTGCGCACGTGACGGT | -0.11
63 | ACGTCCACGTGGGGTT | -0.19
64 | TTGGCCACGTGGATGA | 0.05
65 | GTTGTCACGTGCGTAT | 0.03
66 | TGATACACGTGGGTGG | -0.14
67 | ATGCTCACGTGGGCTG | 0.04
68 | AGGTCCACGTGAGGGA | 0.06
69 | GCAGTCACGTGGGGGT | 0.03
70 | GTAGGCACGTGGCGAG | -0.25
71 | TTATGCACGTGCTATT | -0.02
72 | GGGGGCACGTGGGCAG | -0.2
73 | GTTCTCACGTGGTAGG | 0.21
74 | AGTTTCACGTGTCCTT | 0.41
75 | CTAGGCACGTGATAGG | -0.04

Row | Sequence | relative binding free energy [kcal/mol]
76 | GGTTTCACGTGAGAAC | 0.49
77 | GTAGTCACGTGGGAAG | 0.11
78 | GGATGCACGTGTATAG | 0.21
79 | GGGTGCACGTGCCTGA | 0.03
80 | GCCTTCACGTGGGGAG | 0.2
81 | TCGATCACGTGTGAGT | 0.39
82 | TTGATCACGTGTTTTA | 0.16
83 | GTTCGCACGTGAAGCG | 0.37
84 | AACGTCACGTGTGTGT | 0.13
85 | ATTATCACGTGCTTTG | 0.05
86 | CAGGTCACGTGAGTAT | 0.36
87 | GTGAGCACGTGGATGA | -0.04
88 | CTGGGCACGTGGTTTC | -0.1
89 | CATGGCACGTGTGCGG | -0.15
90 | GATGACACGTGTTGAT | 0.06
91 | TTTTACACGTGTAAGA | 0.26
92 | GAAGTCACGTGTATGT | 0.13
93 | ATGGGCACGTGCGTAT | -0.13
94 | GGAATCACGTGGAGTA | 0.2
95 | TTGATCACGTGTCGTG | 0.16
96 | TAATTCACGTGTATAA | 0.19
97 | GTGCTCACGTGGTTGG | 0.32
98 | TTGGGCACGTGGCTGT | -0.08
99 | GTGCTCACGTGTTTGT | 0.17
100 | GTTGCCACGTGCGGTG | -0.07

Row | Sequence | relative binding free energy [kcal/mol]
101 | TTTCACACGTGATGTT | 0.3
102 | TCTGTCACGTGTCAGG | 0.01
103 | AGAGGCACGTGGGCTA | -0.29
104 | TTTTACACGTGAAATT | 0.38
105 | GTGTGCACGTGCATTG | 0.13
106 | ATTAGCACGTGAATTT | 0.17
107 | CTGTACACGTGTAAGT | 0.18
108 | AGTGCCACGTGTGGTA | 0.08
109 | TATAACACGTGCAGGT | 0.1
110 | GCTGGCACGTGGTGAA | -0.1
111 | TAATGCACGTGTTTTC | 0.1
112 | TAACGCACGTGTTAGG | -0.13
113 | TGGACCACGTGGGAGT | -0.12
114 | AGACTCACGTGGGGTG | 0.05
115 | ATCAGCACGTGGATGG | -0.06
116 | GTGAGCACGTGCTAGG | -0.26
117 | ATTTACACGTGCGTAT | -0.01
118 | TAGGACACGTGGGTCC | 0.23
119 | GGTGTCACGTGTCAGA | 0.23
120 | GGGAGCACGTGGTTCT | -0.09
121 | GCAGGCACGTGTGTGA | -0.08
122 | TCTTACACGTGTATGG | 0.1
123 | AGATGCACGTGGGTAA | -0.27
124 | GAGCGCACGTGGGAGG | -0.22
125 | GAGGCCACGTGGATGG | -0.05

Row | Sequence | relative binding free energy [kcal/mol]
126 | AGGAACACGTGTGTAT | -0.02
127 | ATACACACGTGTATGG | 0.07
128 | CATGTCACGTGGCTGG | 0.02
129 | TACGACACGTGGTGTA | -0.05
130 | CGTCTCACGTGTGATG | 0.19
131 | GGCGGCACGTGCGGTT | -0.14
132 | ATAAGCACGTGGATAT | 0.01
133 | GATGTCACGTGATTGC | 0.2
134 | TAGATCACGTGAGTTG | 0.25
135 | TAAGGCACGTGTTGAA | -0.16
136 | CGTTTCACGTGTTATG | 0.15
137 | TGTTTCACGTGGAGGT | 0.26
138 | GATATCACGTGTGGTC | 0.16
139 | GCGGTCACGTGATTGG | 0.37
140 | ATAGGCACGTGATCGG | -0.18
141 | AGATCCACGTGTTGGG | 0.1
142 | TTGGTCACGTGAGAAT | 0.35
143 | TTTATCACGTGTAATC | 0.27
144 | TTCGTCACGTGGTGTT | 0.12
145 | GTCGGCACGTGGTATT | 0.03
146 | CGGTGCACGTGCGGTG | -0.09
